Reference: patent US20240254195A1

B1: P753 (Fc fusion)
chain: ETRECIYYNANWELERTNQSGLERCEGEQDKRLHCYASWRNSSGTIELVKKGCWLDDFNCYDRQECVAHEENPQVYFCCCEGNFCNERFTHLPEAGGPEVTYEPPPTGGGGSGGGGSGG[human IgG1 Fc and a few adjoining residues cut from this listing]
B2: P754 (Fc fusion)
chain: ETRECIYYNANWELERTNQSGLERCEGEQDKRLHCYASWRNSSGTIELVKKGCWLDDFNCYDRQECVAQEENPQVYFCCCEGNFCNERFTHLPEAGGPEVTYEPPPTGGGGSGGGGSGG[human IgG1 Fc and a few adjoining residues cut from this listing]
B3: P739 (Fc fusion)
chain: ETRECIYYNANWELERTNQSGLERCEEEQDKRLHCYASWRNSSGTIELVKKGCWLDDFNCYDRQECVATEENPQVYFCCCEGNFCNERFTHLPEAGGPEVTYEPPPTGGGGSGGGGSGG[human IgG1 Fc and a few adjoining residues cut from this listing]

Experiments:
Assay in all cases: cell-based or functional assay
activin B = target: T1, activin B (UniProt P09529)
T1 sequence (looked up): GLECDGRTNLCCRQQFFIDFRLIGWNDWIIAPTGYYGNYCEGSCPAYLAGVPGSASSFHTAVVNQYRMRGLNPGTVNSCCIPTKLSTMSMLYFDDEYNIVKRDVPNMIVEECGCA

GDF-8 = target: T2, GDF-8 (UniProt O14793)
T2 sequence (looked up): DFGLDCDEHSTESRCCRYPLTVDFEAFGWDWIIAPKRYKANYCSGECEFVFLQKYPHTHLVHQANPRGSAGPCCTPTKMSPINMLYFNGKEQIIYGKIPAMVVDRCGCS

[1] = target: recombinant human activin A (human) (UniProt P08476)
BMP-10 = target: T3, BMP-10 (UniProt O95393)
T3 sequence (looked up): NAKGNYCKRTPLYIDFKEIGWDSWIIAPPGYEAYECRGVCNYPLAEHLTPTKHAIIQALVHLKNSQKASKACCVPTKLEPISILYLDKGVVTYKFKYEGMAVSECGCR

GDF-11 = target: T4, GDF-11 (UniProt O95390)
T4 sequence (looked up): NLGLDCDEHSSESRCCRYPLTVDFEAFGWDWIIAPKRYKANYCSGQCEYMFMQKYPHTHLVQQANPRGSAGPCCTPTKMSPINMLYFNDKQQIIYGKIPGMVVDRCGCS

BMP-9 = target: T5, BMP-9 (UniProt Q9UK05)
T5 sequence (looked up): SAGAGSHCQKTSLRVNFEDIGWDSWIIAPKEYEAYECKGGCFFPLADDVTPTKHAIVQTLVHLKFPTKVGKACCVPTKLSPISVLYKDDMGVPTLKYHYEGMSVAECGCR

Chain of UniProt P08476 (P08476 311-426 limits assumed): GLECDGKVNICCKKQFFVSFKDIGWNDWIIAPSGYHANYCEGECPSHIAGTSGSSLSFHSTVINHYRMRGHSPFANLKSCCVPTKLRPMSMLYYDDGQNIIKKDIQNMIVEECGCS

Row | Binder | Activin B IC50 (activin B) [nM] | GDF-8 IC50 (GDF-8) [nM] | Activin A IC50 [1] [nM] | BMP-10 IC50 (BMP-10) [nM] | GDF-11 IC50 (GDF-11) [nM] | BMP-9 IC50 (BMP-9) [nM]
1 | B1 | 2.4 | 1.4 | 1.6 | 2.9 | 1.5 | 2.1
2 | B2 | 2.1 |  | 1.5 | 2.5 | 1.6 | 3.5
3 | B3 | 6 | 2 | 3.5 | 4 | 2.1 | 1.1
